# Laboratory results as given in the supplement of paper PMC12645437, “Orthogonal IMiD-Degron Pairs Induce Selective Protein Degradation in Cells” (ACS Chemical Biology, 2025).
# The list shows a part of the results.
# Biological target: no compound (DMSO)
# Test: log2 fold change of degron read counts, EGFP-low vs EGFP+ sorted cells; higher = lower degron-EGFP level without compound (poor expression or instability)
# Settings: compound: DMSO control; 18 h
# 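Further: jurkat cells carrying a lentiviral library of mutant zinc finger degrons fused to EGFP plus mCherry, mCherry+ cells FACS sorted, degron abundance counted by next-generation sequencing.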
row,Sequence,log2 fold change of degron read counts
1,FSCPICGAHFTQKGNLLRHIKL,0.39
2,FQCEICGHSFTQKGNLLRHIKL,-2.08
3,FCCPICGHVFTQKGNLLRHIKL,0.439
4,FECPICGAWFTQKGNLLRHIKL,-0.164
5,FECPICGASFTQKGNLLRHIKL,-1.36
6,LDCPICGFFCTQKGNLLRHIKL,1.91
7,FLCDICGAEFTQKGNLLRHIKL,-2.83
8,FWCEQCGAKFTQKGNLLRHIKL,-0.539
9,FGCSVCGHDFTQKGNLLRHIKL,0.146
10,LYCEICGFICTQKGNLLRHIKL,1.62
11,FDCPICGASFTQKGNLLRHIKL,-0.852
12,LNCEICGFKCTQKGNLLRHIKL,-0.414
13,FTCDQCGAWFTQKGNLLRHIKL,-1.19
14,FFCPICGHTFTQKGNLLRHIKL,-0.208
15,FLCNQCGAFFTQKGNLLRHIKL,0.874
16,FYCNVCGAGFTQKGNLLRHIKL,-0.738

row,Sequence,log2 fold change of degron read counts
1,FICPICGAEFTQKGNLLRHIKL,-0.93
2,FQCPVCGAWFTQKGNLLRHIKL,0.456
3,FQCPQCGANFTQKGNLLRHIKL,-0.851
4,FACPICGHGFTQKGNLLRHIKL,-0.3
5,FFCDVCGAIFTQKGNLLRHIKL,0.0146
6,LYCEICGFDCTQKGNLLRHIKL,0.286
7,LECEICGFYCTQKGNLLRHIKL,0.782
8,FRCPVCGAGFTQKGNLLRHIKL,0.0283
9,FGCPVCGATFTQKGNLLRHIKL,0.127
10,FGCEVCGASFTQKGNLLRHIKL,-1.53
11,LFCPICGFECTQKGNLLRHIKL,1.04
12,FKCPVCGAGFTQKGNLLRHIKL,-0.548
13,FECDICGAKFTQKGNLLRHIKL,-0.882
14,LVCNQCGFDCTQKGNLLRHIKL,-0.964
15,FICNQCGHEFTQKGNLLRHIKL,-2.15
16,FCCEICGHYFTQKGNLLRHIKL,-1.19
